{"source": "the supplement of paper PMC10126150", "note": "Sequences with one replicate were seen in a single cluster, so their values are uncertain.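 Further: ATP exposure 15 min at 22 °C before imaging.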"}
{"tested_on": "ATP", "experiment": "switch fluorescence ratio, 500 uM ATP over buffer (Cy3 cluster intensity, sum of 5 cycles each) (fold (ratio)); higher = stronger signal-on switching upon ATP binding; sequences stand for … in TCGTCGGCAGCGTCAGATGTGTATAAGAGACAGTTTTTTTTTTTTTTTTTTTTTTTTT…TC", "conditions": "aptamer strand: ATP DNA aptamer (quencher-CACCTGGGGGAGTATTGCGGAGGAAGG + anchor), 100 nM annealed; ATP concentration: 500 uM; one replicate", "outline": "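Five buffer/ATP imaging cycles were run on Cy3-labelled switching-strand clusters on a modified Illumina MiSeq flow-cell, with NaOH stripping and re-annealing between cycles. In each cycle, clusters annealed to 100 nM quencher-labelled ATP aptamer were imaged in selection buffer, then after 15 min with 500 uM ATP at 22 °C. Per cluster, the fluorescence ratio is summed target-cycle over summed buffer-cycle Cy3 intensity, averaged per switch-domain sequence. Only clusters within 100-1000 RFU were kept.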"}
{"sequence": "TTCTCAGCCC", "switch fluorescence ratio": 1.05}
{"sequence": "AAAGTGACAT", "switch fluorescence ratio": 0.989}
{"sequence": "CATCAGACTA", "switch fluorescence ratio": 0.965}
{"sequence": "TCTTCCCGCG", "switch fluorescence ratio": 1.21}
{"sequence": "GCGCCACTTC", "switch fluorescence ratio": 1.03}
{"sequence": "AATCGGAGTT", "switch fluorescence ratio": 0.987}
{"sequence": "ATAAACCTCT", "switch fluorescence ratio": 1.08}
{"sequence": "GCACTTCCCA", "switch fluorescence ratio": 1.18}
{"sequence": "TGATTTTAGC", "switch fluorescence ratio": 0.976}
{"sequence": "TAGTTTATAC", "switch fluorescence ratio": 1.06}
{"sequence": "AGCGAGGGTA", "switch fluorescence ratio": 1.03}
{"sequence": "ACTAGAGGCG", "switch fluorescence ratio": 0.989}
{"sequence": "CAGTTCACGA", "switch fluorescence ratio": 0.958}
{"sequence": "GTTATACACT", "switch fluorescence ratio": 0.959}
{"sequence": "AAGGCTCACG", "switch fluorescence ratio": 1.04}
{"sequence": "TGAAACACTA", "switch fluorescence ratio": 1.03}
{"sequence": "GTGGTTACCC", "switch fluorescence ratio": 0.998}
{"sequence": "CTTGAAGGAC", "switch fluorescence ratio": 1.1}
{"sequence": "GGCATGGAGA", "switch fluorescence ratio": 1.03}
{"sequence": "TACTCGCCG", "switch fluorescence ratio": 1.12}
{"sequence": "GGTTGTGTGG", "switch fluorescence ratio": 0.96}
{"sequence": "TACCGAGCGG", "switch fluorescence ratio": 1.02}
{"sequence": "CGCGGCACCA", "switch fluorescence ratio": 1.02}
{"sequence": "TCATTTGGA", "switch fluorescence ratio": 1}
{"sequence": "CCATCATAAG", "switch fluorescence ratio": 1.01}
{"sequence": "ACTTGTTCAA", "switch fluorescence ratio": 0.992}
{"sequence": "CAGGTCGGTC", "switch fluorescence ratio": 1.01}
{"sequence": "ATCTAGAGT", "switch fluorescence ratio": 0.94}
{"sequence": "TGACAGTCTT", "switch fluorescence ratio": 1.01}
{"sequence": "GATTCGGCA", "switch fluorescence ratio": 0.988}
{"sequence": "CGGTGGGCTG", "switch fluorescence ratio": 0.969}
{"sequence": "ATAGAACTTA", "switch fluorescence ratio": 1.03}
{"sequence": "CTGAAGGTGA", "switch fluorescence ratio": 1.18}
{"sequence": "TGCTACCTCT", "switch fluorescence ratio": 1.02}
{"sequence": "CCGTGCCTTC", "switch fluorescence ratio": 1.16}
{"sequence": "TAATAGTGCC", "switch fluorescence ratio": 1.01}
{"sequence": "CCGGAACTTT", "switch fluorescence ratio": 1.06}
{"sequence": "ACCGTGAGTT", "switch fluorescence ratio": 1.01}
{"sequence": "AGTGGCTGTT", "switch fluorescence ratio": 1.01}
{"sequence": "AGGCGCGGAG", "switch fluorescence ratio": 1.06}
{"sequence": "TGGTATTTTC", "switch fluorescence ratio": 1}
{"sequence": "GAGAACGGCG", "switch fluorescence ratio": 1.01}
{"sequence": "CGAGGGGTGC", "switch fluorescence ratio": 0.999}
{"sequence": "TTAATTCTGA", "switch fluorescence ratio": 1.04}
{"sequence": "TTTATTGAAT", "switch fluorescence ratio": 0.995}
{"sequence": "TAGAGTTTGA", "switch fluorescence ratio": 1.01}
{"sequence": "AGCGGGATTA", "switch fluorescence ratio": 0.942}
{"sequence": "CTTGGTAGCC", "switch fluorescence ratio": 1}
{"sequence": "CTAGGTCAAC", "switch fluorescence ratio": 0.985}
{"sequence": "CCGGCGATTG", "switch fluorescence ratio": 1.05}
{"sequence": "AGCCGCTTAG", "switch fluorescence ratio": 1.23}
{"sequence": "ACGTCGTAGA", "switch fluorescence ratio": 0.985}
{"sequence": "AGTGGACGT", "switch fluorescence ratio": 0.961}
{"sequence": "ATAGCTATTC", "switch fluorescence ratio": 1.1}
{"sequence": "TTTCGTATAT", "switch fluorescence ratio": 1.02}
{"sequence": "GTATTATCGT", "switch fluorescence ratio": 0.991}
{"sequence": "GGGCAGTACT", "switch fluorescence ratio": 1.74}
{"sequence": "CACGACTCAT", "switch fluorescence ratio": 1.1}
{"sequence": "AGAGCATTCG", "switch fluorescence ratio": 1.02}
{"sequence": "GCCGCGTTTT", "switch fluorescence ratio": 1.03}
{"sequence": "ATCTCGGTC", "switch fluorescence ratio": 0.983}
{"sequence": "AATATCTTAA", "switch fluorescence ratio": 1.03}
{"sequence": "GCATCATGGG", "switch fluorescence ratio": 0.964}
{"sequence": "TGACGAATGG", "switch fluorescence ratio": 1.02}
{"sequence": "GGATTTGCTT", "switch fluorescence ratio": 0.944}
{"sequence": "ATGAATTGC", "switch fluorescence ratio": 0.95}
{"sequence": "GAAAAGCCCA", "switch fluorescence ratio": 1.02}
{"sequence": "GTCGGCTAGC", "switch fluorescence ratio": 0.993}
{"sequence": "CAGCTGCCTT", "switch fluorescence ratio": 1.02}
{"sequence": "GGCGTTATCA", "switch fluorescence ratio": 0.968}
{"sequence": "AGCCGGGCTA", "switch fluorescence ratio": 1}
{"sequence": "CGTAATCAGC", "switch fluorescence ratio": 1.1}
{"sequence": "CCTCAAGTCA", "switch fluorescence ratio": 1.49}
{"sequence": "TAAGCCGTTC", "switch fluorescence ratio": 1}
{"sequence": "ATATTGAAAA", "switch fluorescence ratio": 1.01}
{"sequence": "TGTCTTAAGT", "switch fluorescence ratio": 0.977}
{"sequence": "AAGACCAATA", "switch fluorescence ratio": 1.07}
